# Data published in publication PMC4336329 (PLoS ONE, 2015).
# Among all 310,000 compounds or so, about 2,200 (0.71%) showed an effect of 50% or more. Effects have a minus sign here. The list shows a part of the results.
# Target: human ether-à-go-go-related gene (hERG) potassium channel (human, UniProt Q12809)
# Experiment: primary screen, population patch clamp on CHO cells stably expressing hERG
# human ether-à-go-go-related gene (hERG) potassium channel, sequence (Q12809 whole entry, looked up): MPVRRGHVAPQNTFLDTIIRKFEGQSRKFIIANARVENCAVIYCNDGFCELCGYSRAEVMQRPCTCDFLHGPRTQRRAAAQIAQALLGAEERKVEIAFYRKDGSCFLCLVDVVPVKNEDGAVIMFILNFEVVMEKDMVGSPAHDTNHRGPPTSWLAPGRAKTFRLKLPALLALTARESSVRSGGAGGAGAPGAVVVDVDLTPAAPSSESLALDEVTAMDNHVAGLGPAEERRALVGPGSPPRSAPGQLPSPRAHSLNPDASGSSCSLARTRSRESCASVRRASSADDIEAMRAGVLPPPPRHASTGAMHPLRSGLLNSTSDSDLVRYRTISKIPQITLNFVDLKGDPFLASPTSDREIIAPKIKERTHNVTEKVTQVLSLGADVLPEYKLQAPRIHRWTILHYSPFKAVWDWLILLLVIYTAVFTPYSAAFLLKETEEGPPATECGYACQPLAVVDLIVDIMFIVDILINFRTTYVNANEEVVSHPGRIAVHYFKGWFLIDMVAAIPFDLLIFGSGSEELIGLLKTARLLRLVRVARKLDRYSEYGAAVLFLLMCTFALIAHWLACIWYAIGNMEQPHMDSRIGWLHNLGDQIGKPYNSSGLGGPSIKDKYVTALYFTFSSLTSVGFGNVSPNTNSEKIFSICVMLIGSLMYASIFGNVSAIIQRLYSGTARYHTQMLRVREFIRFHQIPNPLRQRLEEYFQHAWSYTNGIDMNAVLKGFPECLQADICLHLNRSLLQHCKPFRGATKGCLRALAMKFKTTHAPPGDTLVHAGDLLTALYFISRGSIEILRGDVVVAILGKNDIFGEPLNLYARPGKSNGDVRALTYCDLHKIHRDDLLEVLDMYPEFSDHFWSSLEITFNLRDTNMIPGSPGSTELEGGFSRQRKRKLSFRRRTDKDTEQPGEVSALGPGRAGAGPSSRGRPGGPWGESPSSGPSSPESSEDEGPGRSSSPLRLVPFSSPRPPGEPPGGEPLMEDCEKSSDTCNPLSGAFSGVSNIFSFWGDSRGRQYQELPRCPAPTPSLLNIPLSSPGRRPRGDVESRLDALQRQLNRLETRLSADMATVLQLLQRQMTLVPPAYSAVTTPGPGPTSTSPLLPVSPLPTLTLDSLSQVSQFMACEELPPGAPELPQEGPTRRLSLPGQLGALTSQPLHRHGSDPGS
row,Compound,"hERG current change (%, negative = inhibition) at 1uM"
1,COc1ccc(OCc2nnc(SCC(=O)N3C(C)CCCC3C)o2)cc1 (stereo not shown),15.8%
2,Cc1cc(C)c(NC(=O)CCN2CCN(Cc3ccccc3)CC2)c(C)c1,-2.7%
3,COc1ccccc1C(=O)Nc1ccc2c(c1)nc1n2CCN(Cc2ccccc2)C1,8.94%
4,Cc1ccc(CC(=O)N2CCC(c3nc4c(nnn4Cc4ccccc4)c(=O)[nH]3)CC2)cc1,12%
5,Cc1cc(C)c(S(=O)(=O)N(C)c2ccccc2)c(C)c1,8.08%
6,NC(=O)NC(=O)CSc1nnc(-c2ccco2)n1Cc1ccccc1,10.1%
7,CC(C(=O)Nc1ccccc1C(=O)O)n1c(C(F)(F)F)nc2ccccc21 (stereo not shown),9.69%
8,COc1ccccc1CNC(=O)CCNC(=O)Cn1cnc2ccccc2c1=O,16.7%
9,Cc1ccc(C)c(S(=O)(=O)N2CCN(C(=O)c3cnccn3)CC2)c1,-2.69%
10,CCOCCCNC(=O)C(NC(=O)c1ccccc1O)c1ccccc1 (stereo not shown),13%
11,Cc1ccccc1C(C(=O)NC1CCCCC1)N(C(=O)c1ccccn1)c1cccnc1 (stereo not shown),-4.53%
12,O=C(NCC(=O)N1CCN(c2ccccc2O)CC1)c1ccc(Br)o1,13.8%
13,COc1ccc(Cc2nnc(Nc3ccccc3OC)[nH]c2=O)cc1,14.2%
14,CN(C)c1ccc(CNC(=O)c2cc(S(=O)(=O)N3CCOCC3)cn2C)cc1,4.82%
15,O=C(CCn1cnc(-c2ccccc2)c1-c1ccccc1)N/N=C/c1ccc(O)cc1,9.95%
16,CC(=O)NNC(=O)c1sc(=S)n2c1[nH]c(=O)c1sccc12,13.5%
17,CC1CC(=O)Nc2ccccc2N1C(=O)CN1CCN(C=O)CC1 (stereo not shown),11.7%
18,CCN(CCn1cccn1)C(=O)CC1C(=O)NCCN1Cc1ccc(F)c(F)c1 (stereo not shown),2.62%
19,O=C(CSc1ccc(F)cc1)NCCc1ccc(Cl)cc1,14.3%
20,CC(C)CCNC(=O)C1(O)c2ccccc2NC(=O)N1c1ccc(Cl)cc1 (stereo not shown),17.3%
21,N#Cc1c(-c2cccs2)cc(C2CC2)nc1SCC(N)=O,1.77%
22,COc1ccccc1NC(=O)C(C/C=C(/C)Cl)C(C)=O (stereo not shown),4.54%

row,Compound,"hERG current change (%, negative = inhibition) at 1uM"
1,CC1Cc2ccccc2N1c1ncnc2nc[nH]c12 (stereo not shown),3.01%
2,Cc1cc(C)c2cc(C#N)c(N3CCCN(S(=O)(=O)c4ccccc4)CC3)nc2c1,8.61%
3,Cc1nc(Cl)sc1C(=O)Nc1cccc(Cl)c1C,0.96%
4,CN(Cc1ccccc1)C(=O)c1ccccc1Br,6.97%
5,COc1ccc2nc3ccccc3nc2c1N,11.8%
6,CCOc1cc(/C=N/NC(=S)Nc2ccccc2C(F)(F)F)ccc1OCC(=O)N1CCOCC1,15.5%
7,Cc1ccc(S(=O)(=O)NCc2ccc(C(=O)N3CCCC3)cc2)cc1,5.98%
8,CC1(C)Cc2c(cnn2-c2cccc(F)c2)C(NC(=O)CCN2CCCC2=O)C1 (stereo not shown),0.533%
9,O=C(c1ccc(S(=O)(=O)N2CCCCC2)cc1)N1CCN=C1SCc1cccnc1,2.7%
10,O=C(NC(=S)NNC(=O)c1ccco1)c1ccc(Br)cc1,15.8%
11,CC(=O)N(Cc1cc2cc(C)ccc2[nH]c1=O)c1cccc(C)c1C,18.5%
12,COc1cc(-c2ccc(=O)[nH]n2)ccc1OC(F)F,0.0767%
13,CC(C)c1nnc(SCC(=O)N2CCN(C(=O)c3ccco3)CC2)n1N,11%
14,Cc1ccc(NC(=O)/C(C#N)=C/c2cn(CC(=O)NCc3ccco3)c3ccccc23)cc1C,9.74%
15,N#Cc1c(-c2ccc(Cl)cc2)c2c([nH]c1=S)CCCC2,11.5%
16,CCCCCCCN1C2=NCCCN2c2ccccc21.Cl,-21.6%
17,CN(CC(=O)Nc1cccc(F)c1)C(=O)CCc1nc2ccccc2c(=O)[nH]1,5.68%
18,COc1ccc([N+](=O)[O-])cc1NS(=O)(=O)c1ccc(C(=O)N2CCCC2)cc1,-3.99%
19,Cc1c(C(=O)N2CCC3(CC2)OCCO3)oc2ccc(S(=O)(=O)N3CCCCC3)cc12,20.6%
20,O=[N+]([O-])c1cc(CN2CCCC2)ccc1Sc1ccc(Cl)cc1,-3.02%
21,CC1CCCCC1NC(=O)NC(=O)CCl.Cl (stereo not shown),1.4%
22,CCCSc1nc2c(cnn2-c2ccc(F)cc2)c(=O)[nH]1,9.55%

row,Compound,"hERG current change (%, negative = inhibition) at 1uM"
1,CCOc1ccc(C2=Nn3c(nnc3-c3ccccc3OC)SC2)cc1,-11.7%
2,COc1ccc(OC)c(-c2cn(S(=O)(=O)c3ccccc3)nc2N)c1,-2.5%
3,Cn1c2c(c(=O)n(C)c1=O)C(c1ccc(C(F)(F)F)cc1)CC(=O)N2 (stereo not shown),11.4%
4,COC(=O)/C=C1\C(=O)N(c2nc3ccc(OC)cc3s2)C(=S)N1c1ccc(F)cc1,9.1%
5,CN(C)CCCNC(=O)C(=O)NCC1OCCN1S(=O)(=O)c1cccs1 (stereo not shown),11.9%
6,O=C(NC1CCCc2ccccc21)C1CCN(S(=O)(=O)c2ccccc2F)CC1 (stereo not shown),5.2%
7,CCc1cc2c(SCC(=O)NCC3CCCO3)ncnc2s1 (stereo not shown),9.31%
8,CC(C)C(=O)Nc1cccc(NC(=S)NC(=O)c2ccc(Cl)cc2)c1,-2.36%
9,N#C/C(=C\c1ccc(F)c(F)c1)C(=O)NC1CCCCC1,2.36%
10,O=C(CC(=O)Nc1ccc(F)cc1F)Nc1ccc(F)cc1F,14.4%
11,CCOc1ccc(NC(=O)[C@@H]2CCC(=O)N2C2OC(=O)c3ccccc32)cc1 (stereo partly shown),7.07%
12,COc1ccc(C)cc1NC(=O)CSc1nnc(CC(=O)Nc2ccccc2C)n1C,-8.28%
13,CCCC(c1nnnn1CC(=O)OCC)N(Cc1cc2c(C)cc(C)cc2[nH]c1=O)C1CCCC1 (stereo not shown),13.8%
14,CCOc1ccccc1C1C(C#N)=C(N)Oc2n[nH]c(CC)c21 (stereo not shown),-0.983%
15,O=C(Nc1ncc2c(n1)CC(c1ccc(Cl)cc1)CC2=O)c1ccco1 (stereo not shown),-19.9%
16,Cc1cc(C)c(C(=O)CSc2nnc(N)s2)cc1C,6.02%
17,CC(=O)c1cccc(NC(=O)NC2CCCCCCC2)c1,10.6%
18,O=C(Nc1cccc(NC(=O)c2ccc(-c3ccc(Br)cc3)o2)c1)c1ccco1,15.8%
19,CSc1ccc(CN2CCN(Cc3ccccc3)C(CCO)C2)cc1 (stereo not shown),-12%
20,O=C(COc1ccccc1Cl)Nc1nnc(S(=O)(=O)N2CCCC2)s1,1.51%
21,O=C(CSc1nnc2ccccn12)N1CCc2ccccc2C1,7.78%
22,CCNC(=S)N1CCC(n2cnc3ccccc32)CC1,5.85%

row,Compound,"hERG current change (%, negative = inhibition) at 1uM"
1,CCN(CC)c1ccc([C@H]2[C@@H]3CCCC[C@]3(O)CCN2CC(=O)NCc2ccco2)cc1,4.53%
2,CC(=O)C1=C(C)N(c2ccccc2)C(=O)C1(NS(=O)(=O)c1ccc(N)cc1)C(F)(F)F (stereo not shown),14.2%
3,Cc1ccc(/C=C2\SC(=S)N(CCCC(=O)Nc3cccnc3)C2=O)cc1,13.2%
4,O=C(Nc1ccc(Br)cc1)N1C[C@H]2C[C@@H](C1)c1cccc(=O)n1C2,5.14%
5,Cc1cc(C)c(NC(=O)COC(=O)C2CCC2)c(Cl)c1,13.1%
6,CC1=C(C(=O)OC(C)C)C(c2ccccc2)NC(=O)N1C (stereo not shown),10.4%
7,Cc1nn(CC(=O)N2CCCC2)c(=O)c2cc3cc(F)ccc3n12,16%
8,Cc1cc(N/N=C/c2cccc(Cl)c2)nc(NCc2ccccc2)n1,6.28%
9,O=C(c1cc([N+](=O)[O-])ccc1Cl)N1CCN(Cc2ccc3c(c2)OCO3)CC1,8.29%
10,O=C(NCCc1ccccc1)c1ccc(Cl)c(S(=O)(=O)N2CCCC2)c1,10.3%
11,CCOC(=O)c1oc2ccc(Br)cc2c1CSc1nnc(C)s1,15.1%
12,COc1ccccc1CN1C[C@@H]2C[C@@H](c3cccc(O)c3)N3CCC[C@@]23C1=O,0.386%
13,CCOC(=O)c1sc(NC(=O)CSc2nc(-c3ccco3)cc(C(F)(F)F)n2)c(C#N)c1C,4.36%
14,O=C(N/N=C/c1cc2c(cc1Br)OCO2)C1COc2ccccc2O1 (stereo not shown),9.7%
15,Cc1ccn(CC(C)C(=O)O)n1 (stereo not shown),11.2%
16,O=[N+]([O-])c1ccccc1S(=O)(=O)Nc1cccc(-c2ccc3nncn3n2)c1,-0.576%
17,COc1ccc(NC(=S)NCCCN2CCN(C3CCCCC3)CC2)cc1,-2.92%
18,C/C(=N\OCc1nc2ccccc2c(=O)n1/N=C/c1cc(C)cc([N+](=O)[O-])c1O)c1ccccc1,4.34%
19,CCc1ccc(OCCCC(=O)Nc2nccs2)cc1,8.02%
20,CCN1C(=O)CSC1=NC1C2CC3CC(C2)CC1C3 (stereo not shown),15.3%
21,CCn1c(SCC(=O)Nc2ccccc2Br)nnc1-c1cnccn1,4.44%
22,COc1ccc(C(=O)Nc2ccc(NC(=O)C3CC3)cn2)cc1,10.2%
